About 200 (0.062%) of roughly 320,000 compounds were called active. Inconclusive means that the source gave no clear call. Such entries were picked first, then a sample of the others. Calls follow the shape of the dose curve; as a rule, active = well fitted activation curve with a large enough effect; inconclusive = small, poorly fitted or top-dose-only effect; inactive = no such curve, though single readings can be large or run the other way. Potencies of inconclusive entries are left out as doubtful fits.
Assay: qHTS assay for re-activators of p53 using a Luc reporter; also: nearly all actives have a fitted effect of over 45% in size
Conditions: H1299 p53-A138V BP100-luciferase reporter, luminescence, 24 h; series mostly up to 92.2 µM
In short: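 p53-null H1299 cells stably carrying temperature-sensitive p53-A138V and a BP100-luciferase reporter were pinned with compounds (4-point, 1:5 series) and held 24 hrs at 37 deg C. Luminescence was read 10 min after detection reagent.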
Potency is read from the fitted curve at half-maximal effect; tags tell the direction and shape of the fitted curve.

| SMILES | Potency |
| --- | --- |
| CN(C)C(=S)NC(=NCc1ccc([N+](=O)[O-])cc1)c1ccccc1 | inactive |
| Cc1ccc2[nH]c(CNC(=O)c3ccc(F)cc3)cc2c1 | inconclusive [activator, single point] |
| CCCc1cc(=O)[nH]c(SCc2cc(C(=O)OC)c(C)o2)n1 | inactive |
| CCc1cc2c(=O)n(CC(C)C)cnc2s1 | inconclusive [activator, partial curve, poor fit] |
| CCOC(=O)C1=C(COC(=O)[C@H](C)NS(=O)(=O)c2ccc(NC(C)=O)cc2)NC(=O)NC1C (some centres undefined) | inconclusive [activator, partial curve, poor fit] |
| COc1ccccc1-c1sc2cc3c(cc2c1-c1ccc2c(c1)OCO2)OCO3 | inconclusive [activator, single point] |
| N/C(=N\OC(=O)Cc1ccc([N+](=O)[O-])cc1)c1ccccn1 | inconclusive [activator, full curve, poor fit] |
| CC(Sc1nc2ccccc2o1)C(=O)O (centres undefined) | inconclusive [activator, partial curve, poor fit] |
| Cc1ccc(CSc2nc3c(c(SCC(=O)O)n2)CCCC3)cc1 | inactive |
| Cc1ccc(-n2c(C)cc(C(=O)COC(=O)c3c(C)noc3C)c2C)cc1 | inconclusive [activator, partial curve, poor fit] |
| CC(=O)N(CC1CCCO1)c1nnc(-c2ccccn2)s1 (centres undefined) | inconclusive [activator, single point] |
| COc1cc2c(cc1NC(=O)COC(=O)[C@@H](NC(=O)c1ccccc1F)C(C)C)oc1ccccc12 | inconclusive [activator, full curve, poor fit] |
| CC(C)C(NC(=O)C1CCCCC1)C(=O)NC1CCCC(C)C1C (centres undefined) | inactive |
| CCOc1cc(CNCc2ccccc2)ccc1OCC(=O)NC1CCCCC1 | inconclusive [activator, full curve, poor fit] |
| CS(=O)(=O)c1ccccc1C(=O)Nc1ccc(-c2nc3ccccc3o2)cc1 | inactive |
| N#Cc1cc2c(=O)n3ccccc3nc2n(CCCN2CCOCC2)c1=O | inconclusive [activator, single point] |
| C=CCc1ccc(OCCCCOc2ccc(C(=O)O)cc2)c(OC)c1 | inactive |
| Cc1ccc(-c2nnn(CCC(=O)NC(C)(C)C)n2)cc1 | inconclusive [activator, full curve, poor fit] |
| CC(C)c1cc(N2CCOCC2)n2ncc(-c3ccccc3)c2n1 | inconclusive [activator, partial curve, poor fit] |
| CCOc1ccc(NC(=O)NCc2ccc3c(c2)OCO3)cc1 | inactive |
| O=C(c1ccco1)[C@@H]1[C@@H]2C(=O)N(c3ccc(F)cc3)C(=O)[C@@H]2C2c3ccccc3C=CN21 (some centres undefined) | inconclusive [activator, partial curve, poor fit] |
| CCn1c(SCC(=O)NC2(C#N)CCCCC2)nc2ccccc2c1=O | inactive |

| SMILES | Potency |
| --- | --- |
| C/C(=C\C(=O)c1ccc(C)cc1)Nc1ccc(N2CCOCC2)cc1 | inactive |
| CCCOC(=O)c1ccc(-c2ccc(C=O)o2)cc1 | inconclusive [activator, partial curve, poor fit] |
| COC(=O)N/N=C/c1cn(CC(C)COc2ccccc2)c2ccccc12 (centres undefined) | inactive |
| Cc1ccc(-n2ncc3c(NCc4cccnc4)ncnc32)cc1C | inconclusive [activator, partial curve, poor fit] |
| COc1ccc(CCNC(=O)C2CCN(C(=O)c3cccc(Cl)c3)CC2)cc1OC | inconclusive [activator, single point] |
| c1ccc(-n2nc3c(ccc4cnnc43)[nH]2)cc1 | inconclusive [activator, partial curve, poor fit] |
| O=C(COC(=O)c1cccs1)c1ccc2ccccc2c1 | inconclusive [activator, partial curve, poor fit] |
| O=S(=O)(/N=C(/NC(=S)Nc1ccccc1)c1ccccc1)c1ccc(Cl)cc1 | inconclusive [activator, full curve, poor fit] |
| NNC(=O)c1ccc(COc2ccc3c(c2)CCC3)o1 | inconclusive [activator, full curve, poor fit] |
| C[n+]1ccc(/C=C/c2ccc(Br)cc2)cc1 | inactive |
| COc1cccc(C(=O)OCC(=O)N2CCc3ccccc32)c1OC | inactive |
| Cc1cc(-n2c(C)cc(C(=O)COC(=O)CN=C3NS(=O)(=O)c4ccccc43)c2C)no1 | inconclusive [activator, partial curve, poor fit] |
| CCOC(=O)c1ccc(NC(=O)C2C3CCC(C3)C2C(=O)O)cc1 (centres undefined) | inconclusive [activator, single point] |
| COc1ccc([C@H]2CC(=O)C=C(c3ccccc3Oc3ccccc3)C2)cc1 | inactive |
| COc1ccc(-n2c(C)c(C)c3c(NCCCN(C)C)ncnc32)cc1 | inactive |
| Cc1ccc(OCc2cc(C(=O)NCc3cc(F)ccc3C)no2)cn1 | inconclusive [activator, partial curve, poor fit] |
| O=C(O)CSc1cc(C(F)(F)F)nc(-c2ccccn2)n1 | inactive |
| COc1ccc2c(c1)[nH]c1c(=O)n(Cc3ccco3)cnc12 | inactive |
| Nc1[nH]c(=S)[nH]c(=O)c1-c1ccccc1 | inactive |
| COc1ccc(N=C2C(=Nc3ccc(OC)cc3)N(c3ccc(OC)cc3)C(=S)N2c2ccccc2)cc1 | inconclusive [activator, partial curve, poor fit] |
| O=C(CSc1nnnn1-c1ccccc1)N1N=CCC1c1ccccc1 (centres undefined) | inconclusive [activator, full curve, poor fit] |
| CCN(Cc1ccccc1)c1ccc(/C=C(\C#N)c2ccccn2)cc1 | inconclusive [activator, partial curve, poor fit] |
